Test results taken from patent US20220073613A1, “ACTIVATABLE MASKED ANTI-CTLA4 BINDING PROTEINS” (Xilio Development, Inc., priority 2018, published 2022).

Assays:
[1] = biological target: T1, interaction of CTLA4 with its ligands, CD80 and CD86 (Homo sapiens, UniProt P16410); test: CTLA4 blockade bioassay; assay type: cell-based
T1 construct: expressed in transfected cells; host or cells: CTLA4 expressing Jurkat cells; CD80/CD86 expressing Raji cells
Description: The ability of anti-CTLA4 antibodies, including masked anti-CTLA4 antibodies, to block the interaction of CTLA4 with its ligands, CD80 and CD86, was tested using a CTLA4 blockade bioassay. Antibodies were diluted in pre-warmed complete medium. CTLA4 expressing Jurkat cells (effector cells) were thawed and transferred to a conical tube containing complete medium. The cells were mixed and counted. Cells were added to each well of a 96 well plate (Corning, #3917). Diluted antibodies were added to the appropriate wells and tested in duplicate. The plate was gently mixed and incubated at 37° C. for 15 minutes. APC cells (CD80/CD86 expressing Raji cells) were thawed and transferred to a conical tube containing complete medium. The cells were gently mixed, counted, and immediately dispensed to each well and mixed gently. The plate was covered and kept at 37° C. for 6 hours. Bio-Glo reagent was gently mixed by inversion and the bottle was kept at room temperature. After six hours of incubation the assay plate was removed from the incubator and kept at room temperature for ten minutes. Bio-Glo reagent was added to the wells and the plate was incubated at room temperature for five-fifteen minutes. The plate was then read with a luminometer and analyzed using GraphPad Prism. Statistical analysis of fold changes in the ability to block binding was performed using one-way ANOVA comparisons. […]

[2] = system: peripheral blood mononuclear cells (PBMCs); assay type: cell-based, human; settings: non-activated (without exposure to protease); compared to isotype control

T1 sequence (P16410 36-223): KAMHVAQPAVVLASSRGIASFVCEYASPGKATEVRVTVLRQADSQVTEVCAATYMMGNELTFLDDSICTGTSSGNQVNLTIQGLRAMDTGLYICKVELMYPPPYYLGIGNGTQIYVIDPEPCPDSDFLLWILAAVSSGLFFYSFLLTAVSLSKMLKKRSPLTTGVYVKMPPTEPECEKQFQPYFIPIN

Molecule | ability to block the binding of CTLA4 to its ligands ([1]; activated form (prior exposure to protease)) | ability to block the binding of CTLA4 to its ligands ([1]; non-activated form (absence of protease)) | IL-2 production [2]
Antibody 2-14: masked Antibody 2-6: mask CPGKGLPSC, cleavable peptide VPLSLY; SEQ ID NO: 358 and 421 (protein) light: ACPGKGLPSCGGGSSGGSGVPLSLYSGGEIVLTQSPDFQSVTPKEKVTITCSANSALSYMYWYQQKPDQSPKLWVHGTSNLASGVPSRFSGSGSGTDFTLTINSLEAEDAATYYCHHWSNTQWTFGGGTKVEIKRTVAAPSVFIFPPSDEQLKSGTASVVCLLNNFYPREAKVQWKVDNALQSGNSQESVTEQDSKDSTYSLSSTLTLSKADYEKHKVYACEVTHQGLSSPVTKSFNRGEC heavy: QVQLVQSGAEVKKPGSSVKVSCKASGYTFTNYFMNWVRQAPGQGLEWMGRVDPEQGRADYAEKFKKRVTITADKSTSTAYMELSSLRSEDTAVYYCARRAMDNYGFAYWGQGTLVTVSS[human IgG1 constant region with changes left out here] | demonstrated an ability to effectively block | did not demonstrate an ability to effectively block | –
Antibody 2-10: masked Antibody 2-6: mask CPFPALELC, non-cleavable peptide GSGGSG; SEQ ID NO: 427 and 421; negative control (protein) light: ACPFPALELCGGGSSGGSGGSGGSGSGGEIVLTQSPDFQSVTPKEKVTITCSANSALSYMYWYQQKPDQSPKLWVHGTSNLASGVPSRFSGSGSGTDFTLTINSLEAEDAATYYCHHWSNTQWTFGGGTKVEIKRTVAAPSVFIFPPSDEQLKSGTASVVCLLNNFYPREAKVQWKVDNALQSGNSQESVTEQDSKDSTYSLSSTLTLSKADYEKHKVYACEVTHQGLSSPVTKSFNRGEC heavy: QVQLVQSGAEVKKPGSSVKVSCKASGYTFTNYFMNWVRQAPGQGLEWMGRVDPEQGRADYAEKFKKRVTITADKSTSTAYMELSSLRSEDTAVYYCARRAMDNYGFAYWGQGTLVTVSS[human IgG1 constant region with changes left out here] | – | – | did not promote a significant increase in IL-2 production
